Experimental data published in the supplement of paper PMC10369915.
Some of the results follow. Cut-off read from the data, not from the text of the source: active = 3.2 or more and inactive = the rest. The signal is at background level for most entries.

Tests used:
Assay in all cases: enrichment score (SH2-bound / input frequency) (ratio); bacterial display of known human phosphotyrosine sites (pTyr-Var adds point mutants) read by sequencing; higher = stronger binding; tyrosines were phosphorylated by kinases first
Conditions in all cases: peptide library: pTyr-Var
SHP2 C-SH2 domain E139D = target: SHP2 C-SH2 domain E139D
[1] = target: SHP2 C-SH2 domain wild-type
SHP2 N-SH2 domain L43F = target: SHP2 N-SH2 domain L43F
SHP2 N-SH2 domain T42A = target: SHP2 N-SH2 domain T42A
SHP2 N-SH2 domain T52S = target: SHP2 N-SH2 domain T52S
[2] = target: SHP2 N-SH2 domain wild-type

Measured: enrichment score
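Note: displayed peptides selected on beads carrying the immobilized SH2 domain, with library peptides lacking any tyrosine serving as negative controls.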

B1: DSC1_Y846_C848F (peptide)
chain: KHCEDYVFSYN
inactive: SHP2 C-SH2 domain E139D 1.08 | [1] 1.13 | SHP2 N-SH2 domain L43F 0.755 | SHP2 N-SH2 domain T42A 0.944 | SHP2 N-SH2 domain T52S 0.886 | [2] 1.25

B2: DUS3L_Y610_YF (peptide)
chain: FLGRDYLETLM
inactive: SHP2 C-SH2 domain E139D 1.32 | [1] 1.03 | SHP2 N-SH2 domain L43F 1.18 | SHP2 N-SH2 domain T42A 1.19 | SHP2 N-SH2 domain T52S 1.08 | [2] 1.04

B3: DPYSL2_Y479_R481C (peptide)
chain: FPDFVYKCIKA
inactive: SHP2 C-SH2 domain E139D 0.838 | [1] 0.933 | SHP2 N-SH2 domain L43F 0.871 | SHP2 N-SH2 domain T42A 0.673 | SHP2 N-SH2 domain T52S 0.788 | [2] 1.02

B4: DRC7_Y516 (peptide)
chain: LRVHSYKSMQP
inactive: SHP2 C-SH2 domain E139D 1.17 | [1] 0.845 | SHP2 N-SH2 domain L43F 1.23 | SHP2 N-SH2 domain T42A 0.992 | SHP2 N-SH2 domain T52S 1.05 | [2] 0.95

B5: DPPA2_Y127_R131Q (peptide)
chain: LHRHAYPEQQQ
inactive: SHP2 C-SH2 domain E139D 2.37 | [1] 2.01 | SHP2 N-SH2 domain L43F 1.81 | SHP2 N-SH2 domain T42A 1.71 | SHP2 N-SH2 domain T52S 2.15 | [2] 2.25

B6: DSP_Y1542_R1537C (peptide)
chain: CLRIDYERVSQ
inactive: SHP2 C-SH2 domain E139D 1.09 | [1] 1.51 | SHP2 N-SH2 domain L43F 1.11 | SHP2 N-SH2 domain T42A 0.972 | SHP2 N-SH2 domain T52S 1.09 | [2] 1.71

B7: DPYSL2_Y479 (peptide)
chain: FPDFVYKRIKA
inactive: SHP2 C-SH2 domain E139D 0.641 | [1] 0.425 | SHP2 N-SH2 domain L43F 0.505 | SHP2 N-SH2 domain T42A 0.469 | SHP2 N-SH2 domain T52S 0.78 | [2] 0.564

B8: DYNC1H1_Y3379_R3384Q_YF (peptide)
chain: NPSFNYEIVNQ
inactive: SHP2 C-SH2 domain E139D 0.75 | [1] 0.617 | SHP2 N-SH2 domain L43F 0.812 | SHP2 N-SH2 domain T42A 0.708 | SHP2 N-SH2 domain T52S 0.681 | [2] 0.612

B9: DYNC2H1_Y346_H341Y (peptide)
chain: YEKFLYFLPAS
inactive: SHP2 C-SH2 domain E139D 1.39 | [1] 1.37 | SHP2 N-SH2 domain L43F 1.29 | SHP2 N-SH2 domain T42A 1.5 | SHP2 N-SH2 domain T52S 1.24 | [2] 1.14

B10: DYNC2H1_Y346_H341Y_YF (peptide)
chain: FEKFLYFLPAS
inactive: SHP2 C-SH2 domain E139D 1.4 | [1] 1.37 | SHP2 N-SH2 domain L43F 1.2 | SHP2 N-SH2 domain T42A 1.38 | SHP2 N-SH2 domain T52S 1.4 | [2] 1.41

B11: DYNC2H1_Y2231_M2227V (peptide)
chain: PVDTYYDSTRG
inactive: SHP2 C-SH2 domain E139D 0.524 | [1] 0.519 | SHP2 N-SH2 domain L43F 0.559 | SHP2 N-SH2 domain T42A 0.651 | SHP2 N-SH2 domain T52S 0.506 | [2] 0.697

B12: ECEL1_Y400 (peptide)
chain: RVLHNYLVWRV
inactive: SHP2 C-SH2 domain E139D 3 | [1] 2.54 | SHP2 N-SH2 domain L43F 2.64 | SHP2 N-SH2 domain T42A 2.81 | SHP2 N-SH2 domain T52S 2.82 | [2] 2.76

B13: DTX3L_Y385_K386Q (peptide)
chain: VDSAHYQLLET
inactive: SHP2 C-SH2 domain E139D 0.804 | [1] 0.697 | SHP2 N-SH2 domain L43F 0.683 | SHP2 N-SH2 domain T42A 0.665 | SHP2 N-SH2 domain T52S 0.642 | [2] 0.91

B14: DYNC2H1_Y2231_YF (peptide)
chain: PMDTFYDSTRG
inactive: SHP2 C-SH2 domain E139D 0.69 | [1] 0.538 | SHP2 N-SH2 domain L43F 0.816 | SHP2 N-SH2 domain T42A 0.627 | SHP2 N-SH2 domain T52S 0.767 | [2] 0.73

B15: DSP_Y1512_Y1512C (peptide)
chain: LQRVQCDLQKA
inactive: SHP2 C-SH2 domain E139D 0.723 | [1] 1.17 | SHP2 N-SH2 domain L43F 0.761 | SHP2 N-SH2 domain T42A 0.711 | SHP2 N-SH2 domain T52S 1.21 | [2] 1.07

B16: DYSF_Y1684_G1679E (peptide)
chain: ELPQTYCVSGP
inactive: SHP2 C-SH2 domain E139D 0.88 | [1] 0.676 | SHP2 N-SH2 domain L43F 0.706 | SHP2 N-SH2 domain T42A 0.602 | SHP2 N-SH2 domain T52S 0.569 | [2] 0.825

B17: DOK2_Y271_P274L (peptide)
chain: RPDSPYSRLHD
inactive: SHP2 C-SH2 domain E139D 0.754 | [1] 0.884 | SHP2 N-SH2 domain L43F 0.71 | SHP2 N-SH2 domain T42A 0.496 | SHP2 N-SH2 domain T52S 0.516 | [2] 0.506

B18: ECD_Y448 (peptide)
chain: EKEQNYDLTEV
inactive: SHP2 C-SH2 domain E139D 0.605 | [1] 0.398 | SHP2 N-SH2 domain L43F 0.507 | SHP2 N-SH2 domain T42A 0.437 | SHP2 N-SH2 domain T52S 0.363 | [2] 0.328

B19: ECD_Y448_E452Q (peptide)
chain: EKEQNYDLTQV
inactive: SHP2 C-SH2 domain E139D 0.455 | [1] 0.515 | SHP2 N-SH2 domain L43F 0.531 | SHP2 N-SH2 domain T42A 0.48 | SHP2 N-SH2 domain T52S 0.525 | [2] 0.576

B20: DSC1_Y846_YF (peptide)
chain: KHCEDYVCSFN
inactive: SHP2 C-SH2 domain E139D 1.61 | [1] 1.86 | SHP2 N-SH2 domain L43F 1.82 | SHP2 N-SH2 domain T42A 1.58 | SHP2 N-SH2 domain T52S 1.86 | [2] 1.61

B21: E2F3_Y349 (peptide)
chain: GPIEVYLCPEE
inactive: SHP2 C-SH2 domain E139D 0.655 | [1] 0.677 | SHP2 N-SH2 domain L43F 0.779 | SHP2 N-SH2 domain T42A 0.737 | SHP2 N-SH2 domain T52S 0.565 | [2] 0.917

B22: DYRK1B_Y273_Q275R_YF (peptide)
chain: QRIFQYIRSRF
inactive: SHP2 C-SH2 domain E139D 0.315 | [1] 0.213 | SHP2 N-SH2 domain L43F 0.197 | SHP2 N-SH2 domain T42A 0.334 | SHP2 N-SH2 domain T52S 0.315 | [2] 0.168

B23: DYNC2H1_Y2230_M2227V (peptide)
chain: KPVDTYYDSTR
inactive: SHP2 C-SH2 domain E139D 0.579 | [1] 0.671 | SHP2 N-SH2 domain L43F 0.581 | SHP2 N-SH2 domain T42A 0.482 | SHP2 N-SH2 domain T52S 0.67 | [2] 0.75

B24: DSC1_Y846_C848F_YF (peptide)
chain: KHCEDYVFSFN
inactive: SHP2 C-SH2 domain E139D 1.2 | [1] 1.11 | SHP2 N-SH2 domain L43F 0.868 | SHP2 N-SH2 domain T42A 1.02 | SHP2 N-SH2 domain T52S 1.23 | [2] 1.43

B25: ECEL1_Y400_R404C (peptide)
chain: RVLHNYLVWCV
inactive: SHP2 C-SH2 domain E139D 2.66 | [1] 3.08 | SHP2 N-SH2 domain T42A 2.8 | SHP2 N-SH2 domain T52S 2.53
active: SHP2 N-SH2 domain L43F 3.75 | [2] 3.37

B26: DYSF_Y1858_H1857R (peptide)
chain: KTDVRYRSLGG
inactive: SHP2 C-SH2 domain E139D 0.326 | [1] 0.653 | SHP2 N-SH2 domain L43F 0.437 | SHP2 N-SH2 domain T42A 0.591 | SHP2 N-SH2 domain T52S 0.575 | [2] 0.562

B27: DOCK3_Y548_YF (peptide)
chain: HELFVYKCDEN
inactive: SHP2 C-SH2 domain E139D 1.01 | [1] 1.06 | SHP2 N-SH2 domain L43F 1.22 | SHP2 N-SH2 domain T42A 0.925 | SHP2 N-SH2 domain T52S 0.934 | [2] 1.22

B28: DUS3L_Y610_D609N_YF (peptide)
chain: FLGRNYLETLM
inactive: SHP2 C-SH2 domain E139D 1.68 | [1] 1.55 | SHP2 N-SH2 domain L43F 1.66 | SHP2 N-SH2 domain T42A 1.8 | SHP2 N-SH2 domain T52S 1.66 | [2] 1.7

B29: DYNC2H1_Y2231_M2227V_YF (peptide)
chain: PVDTFYDSTRG
inactive: SHP2 C-SH2 domain E139D 0.534 | [1] 0.741 | SHP2 N-SH2 domain L43F 0.91 | SHP2 N-SH2 domain T42A 0.717 | SHP2 N-SH2 domain T52S 0.678 | [2] 0.737

B30: DSG2_Y775_R773K (peptide)
chain: EFLKNYFTDKA
inactive: SHP2 C-SH2 domain E139D 1.2 | [1] 0.762 | SHP2 N-SH2 domain L43F 1.09 | SHP2 N-SH2 domain T42A 0.802 | SHP2 N-SH2 domain T52S 0.89 | [2] 1.38

B31: DOK7_Y405 (peptide)
chain: SLRAHYDTPRS
inactive: SHP2 C-SH2 domain E139D 0.508 | [1] 0.6 | SHP2 N-SH2 domain L43F 0.57 | SHP2 N-SH2 domain T42A 0.545 | SHP2 N-SH2 domain T52S 0.428 | [2] 0.612

B32: DRC7_Y516_P521H (peptide)
chain: LRVHSYKSMQH
inactive: SHP2 C-SH2 domain E139D 2.03 | [1] 1.94 | SHP2 N-SH2 domain L43F 1.91 | SHP2 N-SH2 domain T42A 1.26 | SHP2 N-SH2 domain T52S 1.96 | [2] 1.43

B33: DYNC2H1_Y346 (peptide)
chain: HEKFLYFLPAS
inactive: SHP2 C-SH2 domain E139D 1.21 | [1] 1.65 | SHP2 N-SH2 domain L43F 1.51 | SHP2 N-SH2 domain T42A 2.51 | SHP2 N-SH2 domain T52S 1.58 | [2] 3

B34: DYRK1B_Y271_Q275R_YF (peptide)
chain: LGQRIYQFIRS
inactive: SHP2 C-SH2 domain E139D 1.39 | [1] 1.2 | SHP2 N-SH2 domain L43F 1.36 | SHP2 N-SH2 domain T42A 1.16 | SHP2 N-SH2 domain T52S 1.32 | [2] 1.41

B35: DUOX2_Y70_YF (peptide)
chain: FADGVYQALEE
inactive: SHP2 C-SH2 domain E139D 0.727 | [1] 0.944 | SHP2 N-SH2 domain L43F 0.672 | SHP2 N-SH2 domain T42A 0.61 | SHP2 N-SH2 domain T52S 0.798 | [2] 0.903

B36: DYRK1B_Y271_YF (peptide)
chain: LGQRIYQFIQS
inactive: SHP2 C-SH2 domain E139D 2.04 | [1] 1.84 | SHP2 N-SH2 domain L43F 2.11 | SHP2 N-SH2 domain T42A 1.65 | SHP2 N-SH2 domain T52S 1.8 | [2] 1.86

B37: DYNC1H1_Y3051 (peptide)
chain: SHEELYKWFTS
inactive: SHP2 C-SH2 domain E139D 1.23 | [1] 1.22 | SHP2 N-SH2 domain L43F 1.14 | SHP2 N-SH2 domain T42A 1.09 | SHP2 N-SH2 domain T52S 1.35 | [2] 1.29
